# “And” between values parts separate entries of the source, which are not always exact repeats. Identical values can stand only once. The shares of active, inactive and inconclusive entries below differ from those in the screen. For some of these results: No potency is given beside an inconclusive call; the fits are too rough. The source made the active and inactive calls. Unless noted, calls come from the whole dose curve; as a rule, active = well fitted curve in the direction sought with a large enough effect; inconclusive = small, poorly fitted or top-dose-only effect, or another doubt; inactive = no such curve, though single readings can be large; an effect the other way counts as inactive or inconclusive.
# Legend:
# [1] = NFAT Signaling Pathway (AID 444; active = well fitted curve in either direction with a large enough effect, not every such curve was filed as active; inconclusive = small, poorly fitted or top-dose-only effect, or another doubt;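 note: carbachol stimulus at about its EC50 of 1 µM final; % is set by controls: 0 for no effect and ±100 for the full control effect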); details: Jurkat NFAT-bla M1, carbachol, beta-lactamase ratio, 5 h; at 17.2 µM (top of the series)
# Outline: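 Jurkat cells carrying an NFAT-driven β-lactamase reporter and co-transfected muscarinic M1 receptor were treated with compound plus carbachol (1 uM final, an EC50 level) for 5 h at 37 °C. CCF4 loading followed for 1 h at RT; 460/530 nm ratio gave %activity.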
# [2] = Stat Signaling Pathway (AID 446; active = well fitted curve in either direction with a large enough effect, not every such curve was filed as active; inconclusive = small, poorly fitted or top-dose-only effect, or another doubt;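 note: ME-180 cervical cancer cells given 40 pM IL-6 alongside compound; SIE-controlled beta-lactamase reporter measured as 460/530 nm FRET emission ratio; top concentration of the series differs between compounds; % is set by controls: 0 for no effect and ±100 for the full control effect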); details: ME-180 (cervical carcinoma) SIE beta-lactamase reporter, IL-6 stimulated, 5 h; at 17.2 µM (top of the series)
# Outline: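 FRET read-out (405 nm excitation, 460/530 nm emission) of a beta-lactamase reporter under a STAT-inducible element in ME-180 cervical carcinoma cells. Cells with compound receive 40 pM IL-6 for 5 h. Values are normalised to AC90 stimulation and AC90 JAK-inhibitor controls.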
# [3] = target: 3',5'-cyclic-AMP phosphodiesterase 4B (Homo sapiens) (UniProt Q07343); test: qHTS Assay for Inhibitors of PDE-IV (AID 607; active = well fitted activation curve with a large enough effect in the main read-out, with a control signal flat, not every such curve was filed as active; inconclusive = small, poorly fitted or top-dose-only effect, or effect the other way, or a change in a side signal; note: potency is the fitted concentration of half-maximal effect); details: HEK293 ACTOne CNG channel cells, membrane potential fluorescence; activation (PDE inhibition): at 22.9 µM (top of the series)
# Outline: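 Cell-based read-out of cAMP via a modified cyclic nucleotide-gated channel and membrane potential dye (535/590 nm) in HEK293 cells expressing PDE4 endogenously. Compounds tested up to 22.9 uM final; 100 uM RO 20-1724 reference.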
# [4] = P-glycoprotein substrates identified in KB-8-5-11 adenocarcinoma cell line, qHTS therapeutic library screen (AID 1346987); details: KB-8-5-11 (P-gp overexpressing) viability, CellTiter-Glo, 72 h; series mostly up to 44.5 µM; note: potency is the fitted concentration of half-maximal effect; nearly all actives have a fitted effect of over 65% in size
# Outline: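 Human cervical adenocarcinoma KB-8-5-11 cells, selected in colchicine to over-express P-gp and assayed without it, were exposed for 72 h to titrated compounds. An ATP-based luminescent viability signal gave AC50.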
# [5] = qHTS of pediatric cancer cell lines to identify multiple opportunities for drug repurposing: Primary screen for SJ-GBM2 cells (AID 1347091); details: SJ-GBM2 viability, CellTiter-Glo luminescence, 48 h; series mostly up to 46 µM; note: potency is the fitted concentration of half-maximal effect
# Outline: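 Eight- or eleven-point concentration series, 48 h treatment at 37 degrees C in growth media; readout CellTiter-Glo luminescence. Potency and efficacy were taken from the concentration-response curves.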
# [6] = qHTS of pediatric cancer cell lines to identify multiple opportunities for drug repurposing: Primary screen for SK-N-MC cells (AID 1347093); details: SK-N-MC viability, CellTiter-Glo luminescence, 48 h; activity change, negative = cytotoxic: at 46 µM (top of the series); note: potency is the fitted concentration of half-maximal effect
# Outline: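 Metabolically active cells were quantified by ATP-dependent luminescence (CellTiter-Glo, 15 min at room temperature) following 48 h treatment. Cells had been plated at 500-1,000 per well and settled for 5 h beforehand.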
# [7] = qHTS of pediatric cancer cell lines to identify multiple opportunities for drug repurposing: Primary screen for BT-37 cells (AID 1347094); details: BT-37 viability, CellTiter-Glo luminescence, 48 h; series mostly up to 57.3 µM; note: potency is the fitted concentration of half-maximal effect
# Outline: (§1)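 CRCs from 8- or 11-point titrations (lowest final 0.59 nM NPC, 0.78 nM MIPE). Cell viability: CellTiter-Glo after 48 h incubation, 15 min room-temperature development, luminescence imaging.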
# [8] = qHTS of pediatric cancer cell lines to identify multiple opportunities for drug repurposing: Primary screen for NB-EBc1 cells (AID 1347095); details: NB-EBc1 neuroblastoma viability, CellTiter-Glo luminescence, 48 h; series mostly up to 46 µM;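 note: plate controls were DMSO neutral control for no effect and bortezomib for full effect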
# Outline: as §1
# [9] = qHTS of pediatric cancer cell lines to identify multiple opportunities for drug repurposing: Primary screen for SK-N-SH cells (AID 1347098); details: SK-N-SH viability, CellTiter-Glo luminescence, 48 h; series mostly up to 57 µM; note: potency is the fitted concentration of half-maximal effect; nearly all actives have a fitted effect of over 65% in size
# Outline: (§2)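 Cells (500-1,000/well) rested 5 h, then received compounds for 48 h; metabolically active cells were measured by CellTiter-Glo luminescence. Final concentrations spanned up to 46 µM (MIPE, 11-point) or 0.59 nM-46 µM (NPC, 8-point) in primary screens, 11-point in follow-ups.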
# [10] = qHTS of pediatric cancer cell lines to identify multiple opportunities for drug repurposing: Primary screen for BT-12 cells (AID 1347101); details: BT-12 viability, CellTiter-Glo luminescence, 48 h; series mostly up to 57.3 µM; note: potency is the fitted concentration of half-maximal effect; nearly all actives have a fitted effect of over 25% in size
# Outline: as §2
# [11] = qHTS of pediatric cancer cell lines to identify multiple opportunities for drug repurposing: Primary screen for OHS-50 cells (AID 1347103); details: OHS-50 osteosarcoma viability, CellTiter-Glo luminescence, 48 h; series mostly up to 57.3 µM; note: potency is the fitted concentration of half-maximal effect; nearly all actives have a fitted effect of over 40% in size
# Outline: as §2
# [12] = qHTS of pediatric cancer cell lines to identify multiple opportunities for drug repurposing: Primary screen for RD cells (AID 1347104); details: RD rhabdomyosarcoma viability, CellTiter-Glo luminescence, 48 h; activity change, negative = cytotoxic: at 46 µM (top of the series); note: potency is the fitted concentration of half-maximal effect; nearly all actives have a fitted effect of over 55% in size
# Outline: as §1
# [13] = qHTS to identify inhibitors of the type 1 interferon - major histocompatibility complex class I in skeletal muscle: primary screen against the NCATS Pharmaceutical Collection (AID 1347407); details: human skeletal muscle cells, IFN-b-induced MHC-I HiBiT luminescence, 24 h; activity change, negative = inhibition: at 45.9 µM (top of the series);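 note: luminescence of HiBiT knocked into endogenous HLA-B as interferon-induced MHC class I level; % is set by controls: 0 for no effect and ±100 for the full control effect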
# Outline: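 Luminescence from HiBiT-tagged endogenous HLA-B*08:01 served as the read-out of IFN-beta-induced MHC class I in CRISPR-engineered C25cl48 myoblasts. Cells received 4 ng/ml IFN-beta plus compound (high final 46 uM, […]) for 24 h.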
# Tags give direction and shape of the fitted curve.
# Sequence of UniProt Q07343 (Q07343 whole entry, looked up): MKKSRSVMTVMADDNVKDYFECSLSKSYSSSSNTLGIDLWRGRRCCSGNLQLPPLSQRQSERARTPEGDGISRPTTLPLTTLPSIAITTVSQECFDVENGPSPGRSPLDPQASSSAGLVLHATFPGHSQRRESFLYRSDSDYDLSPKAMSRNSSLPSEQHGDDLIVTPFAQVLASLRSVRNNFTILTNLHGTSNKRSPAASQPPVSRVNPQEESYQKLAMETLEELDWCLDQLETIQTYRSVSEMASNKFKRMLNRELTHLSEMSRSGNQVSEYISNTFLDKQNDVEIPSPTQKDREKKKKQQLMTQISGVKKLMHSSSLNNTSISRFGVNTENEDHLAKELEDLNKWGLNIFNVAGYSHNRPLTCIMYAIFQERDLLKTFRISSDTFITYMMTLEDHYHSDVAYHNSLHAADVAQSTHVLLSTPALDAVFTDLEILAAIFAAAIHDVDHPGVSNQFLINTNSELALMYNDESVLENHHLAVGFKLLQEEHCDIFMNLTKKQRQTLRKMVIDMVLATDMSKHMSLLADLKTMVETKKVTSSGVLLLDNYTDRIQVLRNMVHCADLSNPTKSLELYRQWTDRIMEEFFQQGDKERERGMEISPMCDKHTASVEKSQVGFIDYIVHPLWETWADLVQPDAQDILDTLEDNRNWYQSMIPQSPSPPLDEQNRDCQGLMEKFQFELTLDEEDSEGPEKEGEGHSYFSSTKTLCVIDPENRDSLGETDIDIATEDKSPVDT
smiles,measurement,setting,value
CCN(CCCc1ccccc1)CCCc1ccccc1,"activity change, negative = inhibition",[1],inconclusive: -64.3% [inhibitor] and active: -87%
same,"activity, negative = inhibition",[2],inactive: 13.6% and inactive: 2.48%
same,Potency,[3],"inconclusive [activator, partial curve]"
same,Potency,[4],"inconclusive [inhibitor, single point]"
same,Potency,[5],"inconclusive [cytotoxic, single point]"
same,Potency,[6],"inconclusive [cytotoxic, single point]"
same,Potency,[7],"inconclusive [cytotoxic, partial curve, poor fit]"
same,Potency,[8],inactive
same,Potency,[9],"inconclusive [cytotoxic, full curve, poor fit]"
same,Potency,[10],"inconclusive [cytotoxic, partial curve]"
same,Potency,[11],"inconclusive [cytotoxic, single point]"
same,Potency,[12],"inconclusive [cytotoxic, single point]"
same,Potency,[13],inactive
